Experimental data taken from the supplement of paper PMC7826260.
Some of the results follow. One pool of 16,384 single-stranded DNAs met each Rep nickase domain in vitro (3 µM enzyme, 1 h, 37 °C); shown is the middle of each 90-letter strand. Numbers give uncut DNA relative to the enzyme-free pool, as log2; uncut sequences lie near 0, cut ones below; no hit call is given. Counts are relative to all reads; values above 0 arise when much of the pool is cut.

What was measured:
Test in all cases: uncleaved DNA left, log2 of reads against the no-enzyme library (log2 ratio); higher = less cleavage (more negative = more Rep cleavage of the k-mer); sequences stand for … in CTCGTCCG…ACCGGAGA
[1] = tested on: T1, Rep nickase domain of Muscovy duck circovirus
T1 sequence (residues 1-111, tag not shown): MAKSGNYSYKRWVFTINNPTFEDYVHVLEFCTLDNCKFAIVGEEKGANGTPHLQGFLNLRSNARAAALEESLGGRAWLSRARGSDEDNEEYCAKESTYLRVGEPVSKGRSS
Experimental: (§1)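 A pool of 90-nt single-stranded DNAs with seven random bases just before the constant AC of the nick site (name = the seven bases) was cut by 3 µM recombinant His6-SUMO-tagged Rep nickase domain (300 nM DNA, 50 mM HEPES pH 8.0, 50 mM NaCl, 1 mM MnCl2, 1 h, 37 °C, three replicates). Uncut DNA was amplified and sequenced.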

[2] = tested on: T2, Rep nickase domain of banana bunchy top virus
T2 sequence (residues 1-94, tag not shown): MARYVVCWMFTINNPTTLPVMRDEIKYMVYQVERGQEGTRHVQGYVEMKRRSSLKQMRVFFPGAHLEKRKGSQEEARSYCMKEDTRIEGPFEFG
Experimental: as §1

[3] = tested on: T3, Rep nickase domain of cabbage leaf curl virus
T3 sequence (residues 1-116, tag not shown): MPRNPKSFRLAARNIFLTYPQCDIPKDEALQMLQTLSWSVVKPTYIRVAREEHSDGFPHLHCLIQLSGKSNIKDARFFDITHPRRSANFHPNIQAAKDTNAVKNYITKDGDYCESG
Experimental: as §1

[4] = tested on: T4, Rep nickase domain of chickpea chlorotic dwarf virus
T4 sequence (residues 1-124, tag not shown): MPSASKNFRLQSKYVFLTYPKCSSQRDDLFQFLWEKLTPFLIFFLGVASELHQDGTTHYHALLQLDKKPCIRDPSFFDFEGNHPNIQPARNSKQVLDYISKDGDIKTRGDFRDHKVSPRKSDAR
Experimental: as §1

[5] = tested on: T5, Rep nickase domain of faba bean necrotic yellows virus
T5 sequence (residues 1-98, tag not shown): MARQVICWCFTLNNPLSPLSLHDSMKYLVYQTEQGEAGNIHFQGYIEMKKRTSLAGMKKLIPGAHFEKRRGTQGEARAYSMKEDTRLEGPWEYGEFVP
Experimental: as §1

[6] = tested on: T6, Rep nickase domain of maize striate mosaic virus
T6 sequence (residues 1-117, tag not shown): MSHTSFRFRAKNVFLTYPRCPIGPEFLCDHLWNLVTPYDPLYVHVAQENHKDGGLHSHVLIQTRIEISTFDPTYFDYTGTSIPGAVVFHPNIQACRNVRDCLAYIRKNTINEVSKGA
Experimental: as §1

[7] = tested on: T7, Rep nickase domain of porcine circovirus 2
T7 sequence (residues 2-116, tag not shown): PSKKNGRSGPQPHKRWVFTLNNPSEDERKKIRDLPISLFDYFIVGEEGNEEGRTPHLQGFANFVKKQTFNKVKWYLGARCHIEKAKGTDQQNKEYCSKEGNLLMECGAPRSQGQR
Experimental: as §1

[8] = tested on: T8, Rep nickase domain of tomato golden mosaic virus
T8 sequence (residues 1-124, tag not shown): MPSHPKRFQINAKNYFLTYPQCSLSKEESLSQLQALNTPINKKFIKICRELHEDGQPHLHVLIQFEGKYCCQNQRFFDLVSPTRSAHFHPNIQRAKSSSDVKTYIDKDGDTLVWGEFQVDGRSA
Experimental: as §1

[9] = tested on: T9, Rep nickase domain of tomato yellow leaf curl virus
T9 sequence (residues 1-136, tag not shown): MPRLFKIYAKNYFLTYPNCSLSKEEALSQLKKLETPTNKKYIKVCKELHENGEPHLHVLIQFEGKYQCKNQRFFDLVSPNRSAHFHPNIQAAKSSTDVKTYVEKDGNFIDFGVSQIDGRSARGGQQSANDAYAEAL
Experimental: as §1

[10] = tested on: T10, Rep nickase domain of wheat dwarf virus
T10 sequence (residues 1-137, tag not shown): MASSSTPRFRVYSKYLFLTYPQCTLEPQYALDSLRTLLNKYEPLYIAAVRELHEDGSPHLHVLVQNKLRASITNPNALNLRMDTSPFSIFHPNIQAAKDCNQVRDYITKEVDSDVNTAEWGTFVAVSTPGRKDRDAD
Experimental: as §1

Row | Sequence | uncleaved DNA left (log2) [1] | uncleaved DNA left (log2) [2] | uncleaved DNA left (log2) [3] | uncleaved DNA left (log2) [4] | uncleaved DNA left (log2) [5] | uncleaved DNA left (log2) [6] | uncleaved DNA left (log2) [7] | uncleaved DNA left (log2) [8] | uncleaved DNA left (log2) [9] | uncleaved DNA left (log2) [10]
1 | CCTTACT | -3.22 | -0.743 | -0.504 | -2.91 | -0.0622 | -1.01 | -3.6 | -0.0143 | -0.0505 | -0.311
2 | CGTTGCT | -0.282 | -0.216 | -0.923 | -0.973 | -0.115 | -1.12 | -0.318 | -0.317 | -0.112 | -0.364
3 | CAACGAC | -0.0668 | -0.0952 | -0.182 | -0.586 | -0.00828 | -0.579 | 0.0336 | -0.135 | -0.0488 | -0.0667
4 | CATCCAC | 0.088 | -0.00627 | -0.116 | -0.421 | 0.0237 | -0.783 | 0.0445 | -0.0429 | 0.0196 | 0.0476
5 | GCGCGAT | 0.0962 | -0.0903 | -0.241 | 0.116 | -0.0882 | -0.101 | 0.028 | 0.0133 | 0.0421 | 0.0529
6 | CTGCCAC | -0.121 | -0.0639 | -0.106 | -0.136 | -0.00794 | -0.66 | -0.229 | -0.196 | -0.126 | 0.0121
7 | TGCGGTC | 0.00555 | -0.000349 | -0.265 | -0.375 | 0.0347 | -0.537 | -0.0189 | -0.00739 | 0.0461 | -0.0468
8 | CGCCCAA | 0.211 | 0.111 | 0.101 | -0.0102 | 0.183 | -0.0974 | -0.0204 | 0.0864 | 0.0539 | 0.174
9 | GTATTGA | -0.00142 | 0.0473 | 0.243 | 0.76 | 0.015 | 0.764 | 0.127 | 0.104 | 0.103 | 0.111
10 | AACGCTA | -0.0333 | 0.021 | 0.0518 | -0.803 | -0.0348 | 0.732 | 0.00879 | 0.142 | -0.0518 | -0.13
11 | CCTCGAA | 0.000146 | -0.0504 | -0.13 | -0.368 | -0.0723 | -0.88 | 0.103 | -0.0217 | -0.109 | -0.0939
12 | TGCGCGT | 0.0838 | -0.121 | -0.611 | -0.657 | 0.105 | -0.843 | 0.0868 | -0.0256 | -0.031 | -0.208
13 | TCGATCG | -0.00267 | 0.053 | -0.83 | -0.634 | -0.0621 | -1.14 | 0.126 | 0.0743 | 0.0136 | -0.061
14 | TAAATTG | 0.0242 | 0.00366 | -0.929 | -2.45 | 0.0419 | -1.45 | 0.0985 | -0.0354 | 0.143 | -0.136
15 | GGCCAAT | 0.0699 | 0.178 | 0.745 | 1.8 | 0.0784 | 2.08 | 0.203 | 0.234 | 0.113 | 0.31
16 | TACATAT | 0.0365 | -0.0867 | -0.733 | -2.47 | -0.0303 | -0.721 | -1.32 | -0.123 | -0.0928 | -0.0449
17 | GCCGCGA | -0.0213 | -0.146 | -0.829 | 0.0249 | -0.194 | -0.549 | 0.0674 | -0.0833 | -0.198 | -0.212
18 | CTTAGTA | -0.0873 | 0.0126 | -0.195 | -1.25 | -0.0812 | -0.826 | -0.271 | -0.171 | -0.081 | -0.127
19 | TGGCCCT | -0.0128 | 0.000563 | 0.418 | 0.529 | -0.0415 | 1.22 | 0.0174 | -0.0383 | -0.0294 | 0.0422
20 | GTCCGAA | 0.0695 | 0.2 | 0.479 | 0.977 | 0.123 | 1.66 | 0.107 | 0.126 | 0.201 | 0.255
21 | AAAACTG | -0.0883 | -0.0521 | -0.105 | 0.738 | -0.0931 | 1.25 | -0.00709 | -0.0451 | -0.101 | 0.0258
22 | GTAGGGT | 0.098 | 0.00641 | 0.287 | 1.11 | 0.0557 | 1.7 | -0.0544 | 0.129 | 0.118 | 0.0825
23 | GCTCCCA | -0.177 | 0.0931 | 0.0335 | 0.104 | -0.024 | 0.38 | -0.39 | -0.0246 | 0.139 | 0.0238
24 | TACGAAC | -0.0279 | -0.0456 | -0.26 | -0.311 | -0.0144 | -0.827 | -0.183 | -0.0645 | -0.197 | -0.235
25 | GGCCTGC | 0.0881 | 0.034 | 0.242 | 0.809 | 0.0935 | 1.38 | 0.129 | 0.0624 | 0.022 | 0.00398
26 | TGTTTAG | 0.0562 | -0.0516 | -0.744 | -0.617 | 0.0233 | -1.37 | 0.124 | -0.0705 | 0.0159 | -0.121
27 | GTGGTGT | 0.000445 | 0.018 | 0.479 | 0.95 | 0.0921 | 1.46 | 0.0494 | -0.0189 | 0.13 | 0.0922
28 | GTTACAA | 0.0257 | 0.0874 | 0.252 | 0.91 | 0.0336 | 1.83 | 0.107 | 0.128 | 0.115 | 0.172
29 | TGGTACG | -0.0806 | 0.0269 | -0.691 | -0.541 | -0.0254 | -0.954 | 0.0131 | -0.0488 | -0.097 | -0.0734
30 | CGCTATA | -0.00442 | -0.0772 | -0.152 | -1.35 | -0.0106 | -0.507 | 0.0234 | -0.0697 | 0.00535 | -0.107
